Assay results reported in patent publication US20230295281A1.

Target: oxidized LDL (oxidized low-density lipoprotein) (UniProt P04114)
Test: ELISA on coated oxLDL, isotype-specific secondary antibodies

For “Pentaglobin (human polyclonal immunoglobulin infusion preparation enriched for IgM and IgA)”, the share of oxLDL-binding antibodies by isotype (ratio of OD450 of the isotype to all isotypes) (IgA isotype) was 19%, the share of oxLDL-binding antibodies by isotype (ratio of OD450 of the isotype to all isotypes) (IgG isotype) was 45% and the share of oxLDL-binding antibodies by isotype (ratio of OD450 of the isotype to all isotypes) (IgM isotype) was 35%.

Entries with a single value are a further part of the results.
